Measured values as given in the supplement of paper PMC11741623.
The other results are listed elsewhere or left out. Interaction screen of human proteins with wild-type SARS-CoV-2 proteins by split-DHFR complementation in yeast, 1 µg/mL methotrexate. Value = fitness of the pair (three or more lineages) minus that of the viral protein without a human partner, on a scale set by negative (0) and fused positive (1) controls, mean of up to three cultures; higher = more likely to interact. Active = false discovery rate below 0.05 (one-sided t-test) in at least one culture. Nearly all pairs are not hits, and differences among them are mostly noise (correlation between cultures about 0.3); most hits were seen in one culture only. Human sequences are the Swiss-Prot entries looked up by gene name; the clone may be another isoform. NSP2 values were corrected by the authors for a growth advantage. Listed are human proteins with a hit and a random twelfth of the others.

B1: SYNGR2, O43760 (protein)
chain: MESGAYGAAKAGGSFDLRRFLTQPQVVARAVCLVFALIVFSCIYGEGYSNAHESKQMYCVFNRNEDACRYGSAIGVLAFLASAFFLVVDAYFPQISNATDRKYLVIGDLLFSALWTFLWFVGFCFLTNQWAVTNPKDVLVGADSVRAAITFSFFSIFSWGVLASLAYQRYKAGVDDFIQNYVDPTPDPNTAYASYPGASVDNYQQPPFTQNAETTEGYQPPPVY
B2: SCRG1, O75711 (protein)
chain: MKLMVLVFTIGLTLLLGVQAMPANRLSCYRKILKDHNCHNLPEGVADLTQIDVNVQDHFWDGKGCEMICYCNFSELLCCPKDVFFGPKISFVIPCNNQ
B3: ORMDL1, Q9P0S3 (protein)
chain: MNVGVAHSEVNPNTRVMNSRGMWLTYALGVGLLHIVLLSIPFFSVPVAWTLTNIIHNLGMYVFLHAVKGTPFETPDQGKARLLTHWEQLDYGVQFTSSRKFFTISPIILYFLASFYTKYDPTHFILNTASLLSVLIPKMPQLHGVRIFGINKY
B4: PTPRCAP, Q14761 (protein)
chain: MALPCTLGLGMLLALPGALGSGGSAEDSVGSSSVTVVLLLLLLLLLATGLALAWRRLSRDSGGYYHPARLGAALWGRTRRLLWASPPGRWLQARAELGSTDNDLERQEDEQDTDYDHVADGGLQADPGEGEQQCGEASSPEQVPVRAEEARDSDTEGDLVLGSPGPASAGGSAEALLSDLHAFAGSAAWDDSARAAGGQGLHVTAL

target: SARS-CoV-2 M; test: yeast fitness gain over the viral ORF with no human partner (scaled fitness); higher = more likely to interact
Experimental: (§1)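 Split mouse DHFR complementation in pooled diploid yeast: human ORFeome clones carry one fragment and viral ORFs the other; barcoded lineages compete in 1 µg/mL methotrexate and fitness is read by barcode sequencing in up to three cultures.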

Question: Which yeast fitness gain does the source give for B1 here?
Answer: inactive: -0.0842

Question: Which yeast fitness gain does the source give for B2 here?
Answer: inactive: 0.078

Question: Which yeast fitness gain does the source give for B3 here?
Answer: inactive: 0.232

Question: How did the yeast fitness gain turn out when B4 was run?
Answer: inactive: 0.012

target: SARS-CoV-2 N; test: as above
Experimental: as §1

Question: With B1 as the binder, how does the yeast fitness gain read?
Answer: inactive: 0.0358

Question: How did the yeast fitness gain turn out when B2 was run?
Answer: inactive: -0.0685

Question: With B3 as the binder, how does the yeast fitness gain read?
Answer: inactive: -0.222

Question: For B4, which yeast fitness gain is on record?
Answer: inactive: 0.00456

target: SARS-CoV-2 NSP1; test: as above
Experimental: as §1

Question: With B1 as the binder, how does the yeast fitness gain read?
Answer: inactive: -0.0595

Question: How did the yeast fitness gain turn out when B2 was run?
Answer: inactive: 0.0184

Question: How did the yeast fitness gain turn out when B3 was run?
Answer: inactive: -0.0382

Question: For B4, which yeast fitness gain is on record?
Answer: inactive: -0.0236

target: SARS-CoV-2 NSP10; test: as above
Experimental: as §1

Question: B1 was tested. Which yeast fitness gain did it give?
Answer: inactive: -0.0434

Question: For B2, which yeast fitness gain is on record?
Answer: inactive: 0.0104

Question: With B3 as the binder, how does the yeast fitness gain read?
Answer: inactive: -0.0329

Question: For B4, which yeast fitness gain is on record?
Answer: inactive: 0.00698

target: SARS-CoV-2 NSP12; test: as above
Experimental: as §1

Question: How did the yeast fitness gain turn out when B1 was run?
Answer: inactive: 0.0698

Question: For B2, which yeast fitness gain is on record?
Answer: inactive: 0.0183

Question: Which yeast fitness gain does the source give for B3 here?
Answer: inactive: -0.205

Question: For B4, which yeast fitness gain is on record?
Answer: inactive: 0.0927

target: SARS-CoV-2 NSP13; test: as above
Experimental: as §1

Question: With B1 as the binder, how does the yeast fitness gain read?
Answer: inactive: 0.00557

Question: B2 was tested. Which yeast fitness gain did it give?
Answer: inactive: -0.0526

Question: How did the yeast fitness gain turn out when B3 was run?
Answer: inactive: -0.131

Question: How did the yeast fitness gain turn out when B4 was run?
Answer: inactive: 0.0234

target: SARS-CoV-2 NSP15; test: as above
Experimental: as §1

Question: Which yeast fitness gain does the source give for B1 here?
Answer: inactive: -0.0671

Question: B2 was tested. Which yeast fitness gain did it give?
Answer: inactive: 0.034

Question: With B3 as the binder, how does the yeast fitness gain read?
Answer: inactive: -0.00814

target: SARS-CoV-2 NSP16; test: as above
Experimental: as §1

Question: B1 was tested. Which yeast fitness gain did it give?
Answer: inactive: -0.167

Question: Which yeast fitness gain does the source give for B2 here?
Answer: inactive: -0.0314

Question: Which yeast fitness gain does the source give for B3 here?
Answer: inactive: 0.0553

target: SARS-CoV-2 NSP2; test: as above
Experimental: as §1

Question: With B1 as the binder, how does the yeast fitness gain read?
Answer: inactive: -0.106

Question: How did the yeast fitness gain turn out when B2 was run?
Answer: inactive: -0.0741

Question: With B3 as the binder, how does the yeast fitness gain read?
Answer: inactive: -0.529

Question: Which yeast fitness gain does the source give for B4 here?
Answer: inactive: -0.0373

target: SARS-CoV-2 NSP5; test: as above
Experimental: as §1

Question: With B1 as the binder, how does the yeast fitness gain read?
Answer: inactive: -0.00173

Question: How did the yeast fitness gain turn out when B2 was run?
Answer: inactive: -0.0937

Question: How did the yeast fitness gain turn out when B3 was run?
Answer: inactive: -0.182

Question: Which yeast fitness gain does the source give for B4 here?
Answer: inactive: 0.00163

target: SARS-CoV-2 NSP6; test: as above
Experimental: as §1

Question: With B1 as the binder, how does the yeast fitness gain read?
Answer: inactive: -0.285

Question: B2 was tested. Which yeast fitness gain did it give?
Answer: inactive: -0.0607

Question: B3 was tested. Which yeast fitness gain did it give?
Answer: inactive: 0.0795

Question: B4 was tested. Which yeast fitness gain did it give?
Answer: inactive: 0.00834

target: SARS-CoV-2 NSP7; test: as above
Experimental: as §1

Question: Which yeast fitness gain does the source give for B1 here?
Answer: inactive: -0.0849

Question: B2 was tested. Which yeast fitness gain did it give?
Answer: inactive: -0.0484

Question: How did the yeast fitness gain turn out when B3 was run?
Answer: inactive: 0.0123

Question: Which yeast fitness gain does the source give for B4 here?
Answer: inactive: -0.0266

target: SARS-CoV-2 NSP8; test: as above
Experimental: as §1

Question: Which yeast fitness gain does the source give for B1 here?
Answer: inactive: -0.109

Question: B2 was tested. Which yeast fitness gain did it give?
Answer: inactive: -0.103

Question: For B3, which yeast fitness gain is on record?
Answer: inactive: -0.431

Question: How did the yeast fitness gain turn out when B4 was run?
Answer: inactive: 0.0299

target: SARS-CoV-2 ORF10; test: as above
Experimental: as §1

Question: B1 was tested. Which yeast fitness gain did it give?
Answer: inactive: -0.103

Question: Which yeast fitness gain does the source give for B2 here?
Answer: inactive: 0.052

Question: Which yeast fitness gain does the source give for B3 here?
Answer: inactive: -0.0351

Question: Which yeast fitness gain does the source give for B4 here?
Answer: inactive: -0.00236

target: SARS-CoV-2 ORF3A; test: as above
Experimental: as §1

Question: Which yeast fitness gain does the source give for B1 here?
Answer: inactive: -0.0045

Question: For B2, which yeast fitness gain is on record?
Answer: inactive: 0.058

Question: B3 was tested. Which yeast fitness gain did it give?
Answer: inactive: 0.329

target: SARS-CoV-2 ORF3B; test: as above
Experimental: as §1

Question: With B1 as the binder, how does the yeast fitness gain read?
Answer: inactive: -0.0838

Question: B2 was tested. Which yeast fitness gain did it give?
Answer: inactive: 0.0491

Question: How did the yeast fitness gain turn out when B3 was run?
Answer: inactive: -0.0621

Question: Which yeast fitness gain does the source give for B4 here?
Answer: inactive: 0.0568

target: SARS-CoV-2 ORF6; test: as above
Experimental: as §1

Question: How did the yeast fitness gain turn out when B1 was run?
Answer: inactive: -0.0236

Question: With B2 as the binder, how does the yeast fitness gain read?
Answer: inactive: -0.0282

Question: For B3, which yeast fitness gain is on record?
Answer: inactive: -0.0541

Question: With B4 as the binder, how does the yeast fitness gain read?
Answer: inactive: -0.0691

target: SARS-CoV-2 ORF7A; test: as above
Experimental: as §1

Question: B1 was tested. Which yeast fitness gain did it give?
Answer: inactive: -0.0247

Question: B2 was tested. Which yeast fitness gain did it give?
Answer: inactive: 0.0462

Question: B3 was tested. Which yeast fitness gain did it give?
Answer: inactive: 0.624

Question: With B4 as the binder, how does the yeast fitness gain read?
Answer: inactive: 0.016

target: SARS-CoV-2 ORF7B; test: as above
Experimental: as §1

Question: Which yeast fitness gain does the source give for B1 here?
Answer: inactive: -0.00851

Question: Which yeast fitness gain does the source give for B2 here?
Answer: inactive: -0.0618

Question: B3 was tested. Which yeast fitness gain did it give?
Answer: inactive: 0.379

Question: How did the yeast fitness gain turn out when B4 was run?
Answer: inactive: -0.00185

target: SARS-CoV-2 ORF8; test: as above
Experimental: as §1

Question: Which yeast fitness gain does the source give for B1 here?
Answer: inactive: 0.0428

Question: With B2 as the binder, how does the yeast fitness gain read?
Answer: inactive: -0.0284

Question: For B3, which yeast fitness gain is on record?
Answer: inactive: -0.0453

Question: How did the yeast fitness gain turn out when B4 was run?
Answer: inactive: -0.0143

target: SARS-CoV-2 ORF9B; test: as above
Experimental: as §1

Question: With B1 as the binder, how does the yeast fitness gain read?
Answer: inactive: -0.0159

Question: For B2, which yeast fitness gain is on record?
Answer: inactive: 0.0103

Question: How did the yeast fitness gain turn out when B3 was run?
Answer: inactive: -0.0735

Question: For B4, which yeast fitness gain is on record?
Answer: inactive: 0.034

target: SARS-CoV-2 ORF9Bwu (the 73-codon ORF); test: as above
Experimental: as §1

Question: Which yeast fitness gain does the source give for B1 here?
Answer: inactive: -0.00541

Question: Which yeast fitness gain does the source give for B2 here?
Answer: inactive: -0.018

Question: With B3 as the binder, how does the yeast fitness gain read?
Answer: inactive: 0.0722

target: SARS-CoV-2 S; test: as above
Experimental: as §1

Question: For B1, which yeast fitness gain is on record?
Answer: inactive: -0.154

Question: How did the yeast fitness gain turn out when B2 was run?
Answer: inactive: -0.00962

Question: How did the yeast fitness gain turn out when B3 was run?
Answer: inactive: -0.109

Question: With B4 as the binder, how does the yeast fitness gain read?
Answer: inactive: -0.0673

target: SARS-CoV-2 NSP14; test: as above
Experimental: as §1

Question: How did the yeast fitness gain turn out when B2 was run?
Answer: inactive: 0.0432

Question: How did the yeast fitness gain turn out when B3 was run?
Answer: inactive: 0.0413

Question: How did the yeast fitness gain turn out when B4 was run?
Answer: inactive: 0.0358

target: SARS-CoV-2 NSP4; test: as above
Experimental: as §1

Question: B2 was tested. Which yeast fitness gain did it give?
Answer: inactive: 0.0207

Question: B3 was tested. Which yeast fitness gain did it give?
Answer: active: 0.96

Question: Which yeast fitness gain does the source give for B4 here?
Answer: inactive: -0.0597

target: SARS-CoV-2 NSP9; test: as above
Experimental: as §1

Question: B2 was tested. Which yeast fitness gain did it give?
Answer: inactive: -0.214

Question: How did the yeast fitness gain turn out when B3 was run?
Answer: inactive: 0.0286

Question: How did the yeast fitness gain turn out when B4 was run?
Answer: inactive: -0.0525
